Experimental data from the supplement of paper PMC11417369.
± gives the standard deviation of the averaged measurements. This is one part of the list.

tested on: PfAP2-G AP2 domain (GST-tagged); assay: gcPBM binding intensity (ln(normalized median fluorescence intensity)); higher = stronger DNA binding
Summary of the method: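 After 1 h on an Agilent 4 × 180k array of primer-extended double-stranded 36-bp intergenic genomic probes and negative controls, bound GST-tagged P. falciparum DNA-binding domains were detected with Alexa488 anti-GST antibody and scanned at 488 nm. The domains had been expressed in E. coli, and binding took place in 1× PBS with 1% milk, 0.2 mg/ml BSA, 0.5% salmon testes DNA and 0.03% Triton X-100. Binding intensity is the highest Masliner-normalised natural-log median intensity across replicate spots of either probe orientation.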

Row | Sequence | gcPBM binding intensity (ln)
1 | TTTTTAAAAAAGATAAGCGAAAGAATTAATTTTTAA [GTGCAC_negctrl_site197] | 9.99 ± 0.13
2 | TATGTATAAATATATGCACACATATATATATTTATA [CACACA_site9150] | 9.98 ± 0.3
3 | AAATTTATATAATATTGTACATTAAAAATTATATAT [XGTACX_site8009] | 11 ± 0.57
4 | TGGGTAATACATAATACACACATGTATATGTCGCAT [CACACA_site1125] | 9.995 ± 0.092
5 | AGTATATATACACAAGGGGAATACATATACAAAATT [TGCATGCA_negctrl_site244] | 9.98 ± 0.085
6 | TATATATATATAATGTGTACACAAATATATATTATA [XGTACX_site8786] | 11.7 ± 1.1
7 | AGGTAAAATATACATTGTACATATAATTAATTTATT [XGTACX_site626] | 10.9 ± 0.57
8 | AAGTTGTATATTGATTGTACTTGTTTAGGGTTATAG [XGTACX_site2953] | 11.2 ± 0.73
9 | ATATATATAATAAACACACACATATACATATATGTA [CACACA_site3462] | 9.97 ± 0.071
10 | TTTTTATATTTTATTATTTTTTTTATATAAAAAATT [CACACA_negctrl_site601] | 10.1 ± 0.19
11 | TTTATATATAAATAATGTACAAAAAATTTTAAAAAG [XGTACX_site7990] | 10.9 ± 0.41
12 | ATAAAAATATTTGAATGTACTTATAAGATATATATA [XGTACX_site4257] | 11.2 ± 0.73
13 | GTAAAACAGATTTACAGTACACATGTGTTATGTTTT [XGTACX_site2933] | 11.2 ± 0.82
14 | GTTCATAAATTAAACACACACACACGGCTGGATACC [CACACA_site7545] | 10.7 ± 0.54
15 | AGGTAGAAAAAAGACACACACATTAGATATTTATAT [CACACA_site6313] | 10.01 ± 0.071
16 | AAATCGTGCACGGACACATGCAGTAGCCGAGAATTA [TGCATGCA_site733] | 11.1 ± 0.75
17 | TGTTTATTTATTTGTGTGCACTCAGATTATATTATA [GTGCAC_site9510] | 10.5 ± 0.35
18 | GATGTATTCATACATGCACACGTACATATTTAAATA [CACACA_site9299] | 11.4 ± 0.88
19 | TATTTTAATTTTTGTTGTACGCAAATGTGAGGGCAT [XGTACX_site4663] | 11.7 ± 1.2
20 | TAAACCAAAAAAAGTAGTACAAATATTATAAAAAAA [XGTACX_site8497] | 11.6 ± 0.74
21 | GTTCAAATTATTATGTGTACTAAAGAATATTTTAAA [XGTACX_site3166] | 11.2 ± 0.86
22 | AGGAAAAATAATTATTCACACAATAAATATATTTGA [CACACA_site5824] | 9.71 ± 0.18
23 | AATTAATTTATGTTACGTACATAAGTATTATATTTT [XGTACX_site388] | 11.5 ± 0.87

Row | Sequence | gcPBM binding intensity (ln)
24 | TCTATTTTTTATATGGTGCATTGTTCTTATTAATAT [GTGCAC_site9392] | 10.3 ± 0.19
25 | CTTTATTTTTTATACACACACAATATGTATTTATAT [CACACA_site5879] | 10.21 ± 0.014
26 | AAAAACCTGAACTGTGCATGTCATACTTTTACTTTT [TGCATGCA_site73] | 9.91 ± 0.12
27 | TATATATGTGTATAGAGTACACGTTTTTTTTAATAT [XGTACX_site3128] | 11.4 ± 0.85
28 | TTGTACAAAAATAATGCACACTATATCAAGTTTTTT [CACACA_site5898] | 10.5 ± 0.24
29 | TTTATAAATTCTCTTTTTAAAAAATATTTTTATACT [CACACA_negctrl_site427] | 9.69 ± 0.37
30 | TAATCATTTTAGCTTACACACAAAATTTTGTTATAA [CACACA_site2939] | 9.875 ± 0.035
31 | AAAATAATTTTATAAGTGCAAAATAGCTTATTTATA | 9.87 ± 0.085
32 | TAAATACATCTATGCACACAAAAAAATATATATTTT [CACACA_site5027] | 10.2 ± 0.18
33 | TGTATAAACTTTACGTGTACATGAATAATCTATAAT [XGTACX_site3801] | 11.5 ± 0.86
34 | TATACGTATTACAGAGTGCAATAAACAGTATATATT | 10.3 ± 0.19
35 | TATGTGCATATAAACTCACACATTGTATATTACATG [CACACA_site6106] | 10.14 ± 0.035
36 | AAGGAAAAGTAAAGAAGTACTGTACCGCCAAAAAAA [XGTACX_site2607] | 11.5 ± 0.82
37 | TTGATGTTGGTAGGATGTACGGTACCGGTAGTATTT [XGTACX_site6642] | 11.4 ± 0.8
38 | AATTTATTTTTTTGATGTACATACAATTTATCACAA [XGTACX_site5936] | 11.4 ± 0.75
39 | AAAATAATAAAAAGGGGTACAAAGAAACAAATATAA [XGTACX_site296] | 11.6 ± 0.97
40 | TTTATTAAAATATTCTCACACACCAAAATATGTATG [CACACA_site932] | 9.9 ± 0.028
41 | ATAAAATAACACAACGTTGACAAATTTGGATGACTC [XGTACX_negctrl_site324] | 10.09 ± 0.014
42 | ATATATGTAGATATATGTACATATATAGGTAGATAT [XGTACX_site7589] | 11.2 ± 0.72
43 | AAAAATTTATTTAAAAGTACATAAAATAAAGGTGGA [XGTACX_site7591] | 11.4 ± 0.69
44 | ACTTTAGAAATAGAGGTGCTATTTTTATTACCACAC | 10.3 ± 0.26
45 | ATTTTAGAATTTAATACACACAAAAAAAAAAAATTA [CACACA_site3704] | 10 ± 0.33
46 | TATTACATTATATAAACATGCAAAACTATATATTAT [TGCATGCA_site601] | 9.76 ± 0.13

Row | Sequence | gcPBM binding intensity (ln)
47 | AAATGTAATATAAATAGTACATATTAAATAAAATTA [XGTACX_site6917] | 11.1 ± 0.88
48 | TTATAATATGTATACACACACATATATAGATATATA [CACACA_site7159] | 9.97 ± 0.071
49 | ATTCTTTATATGCATACACACCTAATATAGGGACCT [CACACA_site6830] | 10.27 ± 0.057
50 | GTACATAGGTATAGCACACACAAATGTAGGTATTTT [CACACA_site4049] | 10.8 ± 0.39
51 | TGCACAAAGTTATGCACACACCTAAAATTAATTTTT [CACACA_site7385] | 10.05 ± 0.071
52 | TATACACATATATACACACACATATATAAATAAATA [CACACA_site7579] | 10 ± 0.23
53 | ATTATATATAATATAGTGCATGTAAAAAATAAAACA | 10.2 ± 0.18
54 | AAAAAAAAAAAAAAAACACACATAAAAATATAATAA [CACACA_site3855] | 10.2 ± 0.27
55 | TATTTTATTTGTATATTCATTTGTATAATATAAATA [TGCATGCA_negctrl_site267] | 9.86 ± 0.12
56 | AAGAATATTATAAACACACACTTTATAAAGAATTAT [CACACA_site4241] | 9.99 ± 0.085
57 | TATATAATTGTCTTCACACACACATATATATATATA [CACACA_site2744] | 10.1 ± 0.28
58 | TTATATAACATTATTTGTACATATAAAATATGGATG [XGTACX_site8526] | 10.9 ± 0.62
59 | AAAAAAAATTTATGGGGTACATATTATAATATTATA [XGTACX_site3395] | 11.5 ± 0.95
60 | TTAAAATATGAATAATGTACAAGAAATTTTATTAAT [XGTACX_site6314] | 10.9 ± 0.43
61 | ATTATTACATTTTTATGTACATATCAAATTTATACA [XGTACX_site7332] | 11.4 ± 0.82
62 | TTAACTTAAGGAGAGTGTACAAATAATAAAATATCT [XGTACX_site4118] | 10.9 ± 0.52
63 | TATAAATTAAAATGTGTGCACTAAATTGAAATAGAA | 10.5 ± 0.3
64 | ATATATATATATAATAGTACATATATTTTTATTGGT [XGTACX_site711] | 10.9 ± 0.57
65 | ATATTTTTTACAAATTGTACATTTTTACAATTATTA [XGTACX_site7496] | 10.6 ± 0.45
66 | TAACCTAAAATAACTACACACACATAAAAAAAAAAA [CACACA_site8807] | 9.99 ± 0.28
67 | TCACTTAATATTTAATGTACATAAGGTTCTTGTGCC [XGTACX_site1822] | 11.1 ± 0.53
68 | GGAAAATCTTTATAATGTACATTATGATTATATAAT [XGTACX_site6256] | 10.8 ± 0.39
69 | AAATATAAAGTGCACACACACAAAAAAAGAAAAAAA [CACACA_site6452] | 10.5 ± 0.47

Row | Sequence | gcPBM binding intensity (ln)
70 | GTTTTCATCCAAAAAAGTACATTTATTTTTATACGA [XGTACX_site1039] | 11.3 ± 0.9
71 | GTAGTGGTTGAATATACACACATATATAAATAAATA [CACACA_site7282] | 10.2 ± 0.22
72 | ATGTATGAATTACATAGTACATAAGAAAAAATGAAG [XGTACX_site5942] | 10.9 ± 0.44
73 | TTTGTGTGTACGCGTGTGCACATTTTTTTTTTTTTT | 11.7 ± 0.92
74 | TAAATGTCTTCAATGAAGTGGAAATGCTGTTATATA [CACACA_negctrl_site1155] | 9.875 ± 0.021
75 | TTATTTTTTTTAAATTGTACAAGGAACAGTGAAAAA [XGTACX_site4380] | 11.3 ± 0.81
76 | TTCTATTCAAATGCAAAATTATTAAATAAAAAATAA [GTGCAC_negctrl_site708] | 9.71 ± 0.11
77 | TATATAACCTATAGCACACATATATAATATATATTA [CACACA_site1834] | 9.945 ± 0.035
78 | CACCCACACCAACACACACACATATATATATATATA [CACACA_site362] | 10.3 ± 0.57
79 | AAATAAATTGATTCAACACACACATATGTAGGAAGT [CACACA_site9068] | 10.19 ± 0.021
80 | AATTTTTTTTGTCTCTGTACTTATAAAATATATATG [XGTACX_site4742] | 11.5 ± 1
81 | TTTTTTTTTTTCAAGCGTACAAAAAATATATTTAAA [XGTACX_site5327] | 11.3 ± 0.96
82 | GGAAAATATGTTTGTGTGCACAGCTAGCTATTTGTA [GTGCAC_site9637] | 10.18 ± 0.014
83 | AAAAAAAATTTTAATTGTACAAAAAAAAAAAATATA [XGTACX_site2259] | 10.9 ± 0.49
84 | TATATATGGGTAACCTTTTTTTTTTTTTTTCGAACA [CACACA_negctrl_site1303] | 10.2 ± 0.18
85 | ATTCATAATTTATTATGTACATATATATAATATATT [XGTACX_site1711] | 11 ± 0.6
86 | AAATAACAAATTTTTAAAATGTATATATATATATAT [TGCATGCA_negctrl_site219] | 9.98 ± 0.52
87 | AAGGATATAACATACACACACACACCCATATATATA [CACACA_site4142] | 10.06 ± 0.035
88 | AAAGAAATTATTTGTTGTACATATGTTATTTTTTTT [XGTACX_site7570] | 11.2 ± 0.64
89 | TGCAATTTAATATGAGTGCATATATTGAGAAAATAC | 10.4 ± 0.38
90 | TAAAACCTTTAAAATACATGCAGCATATATAAGTAA [TGCATGCA_site181] | 9.63 ± 0.11
